# Test results reported in PubChem BioAssay AID504832 (National Center for Advancing Translational Sciences (NCATS), 2011).
# Values joined by “and” are separate entries in the source; they are usually repeats but may differ in a detail not shown here. Equal entries are not always repeated. Screen size: about 310,000 compounds; about 18,000 (5.8%) were called active. Inconclusive means that the source gave no clear call. Such entries were picked first, then a sample of the others. Calls come from the whole dose curve; as a rule, active = well fitted inhibition curve with a large enough effect; inconclusive = small, poorly fitted or top-dose-only effect, or another doubt; inactive = no such curve, though single readings can be large or run the other way. Where the call is inconclusive, the potency comes from a doubtful curve fit.
# Test: Primary qHTS for delayed death inhibitors of the malarial parasite plastid, 48 hour incubation
# Details: P. falciparum luciferase growth in erythrocytes; series mostly up to 28.7 µM; activity change, negative = inhibition: at the top concentration
# Procedure, shortened: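 In quantitative HTS format, infected erythrocytes bearing luciferase-reporter parasites were treated for a single generation at 37 C. Luminescence after adding detection reagent served as the growth measure.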
# % is set by controls: 0 for no effect and ±100 for the full control effect; potency is the fitted concentration of half-maximal effect; tags give direction and shape of the fitted curve.
SMILES,"activity change, negative = inhibition",Potency
CCc1ccccc1NC(=O)c1cc(S(=O)(=O)N2CCCC2)c[nH]1,inactive: -16.6%,–
CC12CC(c3ccccc3O1)C(C(=O)N1CCOCC1)C(=O)N2 (stereo unspecified),inactive: 7.24%,–
COc1ccc(C2/C=C\CN(C(=O)Nc3ccccc3-c3ccccc3)CC(=O)N2Cc2ccc(F)cc2)cc1 (stereo unspecified),–,active: 13.1 µM
Cc1cc(C)c(C)c(S(=O)(=O)N2CCN(c3ncnc4ccccc34)CC2)c1C,–,active: 11.7 µM
Cc1nc(NC2=NCN(Cc3ccccc3)CN2)nc2ccccc12,–,"inconclusive: 2.33 µM [inhibitor, full curve]"
CCN(CC)CCn1c(=N)n(CC(O)c2ccc(OC)c(OC)c2)c2ccccc21 (stereo unspecified),–,active: 9.28 µM
CC(C)N(CCn1c(SCC(=O)Nc2cccnc2Cl)nc2ccccc2c1=O)C(C)C,–,"inconclusive: 10.4 µM [inhibitor, partial curve, poor fit]"
Cc1ccc(S(=O)(=O)c2c(CO)c(-c3ccccc3)nn2C)cc1,inactive: 6.42%,–
COc1ccc(C2C3C=CCC(c4cccc(-c5ccc(C)cc5)c4)C3C(=O)N2Cc2ccccc2)cc1Cl (stereo unspecified),–,active: 11.7 µM
COCCOC(=O)c1c(C)n(C)c2ccc(OC(=O)c3c(OC)cccc3OC)cc12,–,active: 1.85 µM
Cc1cc(C)c(S(=O)(=O)N(CC(=O)N2CCOCC2)C2CCCCC2)c(C)c1,–,"inconclusive: 13.1 µM [inhibitor, single point]"
Clc1ccc2nnnc(-c3ccccc3)c2c1,–,"inconclusive: 9.28 µM [inhibitor, single point]"
COC(=O)c1ccc2nc(C)cc(Nc3ccc(N(C)C)cc3)c2c1,–,active: 1.65 µM
COc1cc(/C=C2\SC(=S)N(CCC(=O)N3CCCCC3)C2=O)cc(OC)c1OC,–,"inconclusive: 18.5 µM [inhibitor, single point]"
CC1CCCC(NC(=O)CCCn2ncn3c(cc4occc43)c2=O)C1C (stereo unspecified),–,"inconclusive: 20.8 µM [inhibitor, partial curve, poor fit]"
COc1ccccc1C(=O)NC(=S)NNC(=O)c1sc2ccccc2c1Cl,inactive: 26.3%,–
CCn1c2ccccc2c2cc(NC(=O)c3ccco3)ccc21,–,active: 13.1 µM
O=C(Nc1ccncc1)Nc1cccc(Cl)c1Cl,–,"inconclusive: 1.65 µM [inhibitor, partial curve]"
O=C(NCc1ccncc1)C(=O)Nc1ccc2c(c1)OCO2,inactive: 35.6%,–
CC(C)Oc1nc(-c2ccccc2Cl)nc2ccccc12,–,"inconclusive: 18.5 µM [inhibitor, single point]"
O=c1c2ccccc2nc(SCc2ccccc2)n1Cc1ccco1,–,"inconclusive: 18.5 µM [inhibitor, single point]"
COC(=O)Cc1[nH]c(=S)[nH]c1C(=O)OC,inactive: 4.26%,–
Cc1coc2c1c(C)cc1oc(=O)c(CC(=O)N[C@@H](C)C(=O)O)c(C)c12,inactive: 15.5%,–
COc1ccc(S(=O)(=O)N2CCC(C(=O)N[C@H](C(=O)N3CCCCCC3)C(C)C)CC2)cc1,–,"inconclusive: 10.4 µM [inhibitor, partial curve, poor fit]"

SMILES,"activity change, negative = inhibition",Potency
CC1CCN(CCCCOc2ccccc2-c2ccccc2)CC1,–,active: 10.4 µM
NCCNc1ccc(C(=O)N2c3ccccc3Sc3ccccc32)cc1[N+](=O)[O-],–,"inconclusive: 13.1 µM [inhibitor, partial curve, poor fit]"
Cc1nc2ccccc2c(=O)n1NC(=O)c1cccc([N+](=O)[O-])c1,inactive: -24.4%,–
CCN(CC)C(=O)c1cn(C)c2ccc(S(=O)(=O)N(CC)CC)cc2c1=O,inactive: -12.2%,–
Cc1[nH]c2ccccc2c1C(=O)C(=O)N1CC2CC(C1)c1cccc(=O)n1C2 (stereo unspecified),–,"inconclusive: 2.08 µM [inhibitor, full curve]"
O=C(Nc1ccc2c(c1)CCC2)Nc1ccc2c(c1)OCO2,inactive: 328%,–
COc1ccc(COC(=O)c2ccc(Cl)c(S(=O)(=O)N3CCOCC3)c2)cc1F,–,"inconclusive: 10.4 µM [inhibitor, single point]"
COc1ccc(/C=C/C(=O)C23CC4CC(CC(C4)C2)C3)cc1CN1CCOCC1,–,active: 13.1 µM
CC(=O)c1ccc(C(=O)N2CCC(CO)(Cc3cccc(C(F)(F)F)c3)CC2)cc1,–,"inconclusive: 9.28 µM [inhibitor, single point]"
Cc1nc(-c2ccc(C(=O)Nc3cc(S(N)(=O)=O)ccc3C)cc2)cs1,inactive: -15.9%,–
COc1ccc(C(=O)/C=C/Nc2ccc(S(=O)(=O)Nc3nc(C)cc(C)n3)cc2)cc1OC,inactive: 20.4%,–
Cc1ccccc1C(=O)Oc1cccc2c(O)cccc12,–,"inconclusive: 9.28 µM [inhibitor, single point]"
COC(=O)CCCCC(=O)C1C(=O)CC(C)(C)C(C(=O)OC)C1=O (stereo unspecified),inactive: -11.2%,–
CC(=O)N1CCC(N(CCN2CCOCC2)C(=S)Nc2cc(C)ccc2C)CC1,inactive: 1.02%,–
COc1ccccc1CNC(=O)CCNS(=O)(=O)c1cccc2nonc12,inactive: 4.56%,–
CCOc1ccc(CCNC(=O)COC(=O)c2ccc(F)c(S(=O)(=O)N3CCOCC3)c2)cc1OCC,–,active: 14.7 µM
COc1ccc(NC(=S)NCCCN2CCCC2=O)c(OC)c1,inactive: 16.4%,–
CO[C@]12C(COC(N)=O)C3=C(C(=O)C(C)=C(N)C3=O)N1CC1NC12 (stereo partly specified),–,active: 0.239 µM
CC(=O)N1c2ccc(S(=O)(=O)NCCC(=O)Nc3ccc(F)cc3)cc2CC1C (stereo unspecified),–,"inconclusive: 11.7 µM [inhibitor, single point]"
COc1ccc(C2=NOC(Cn3nc(C(=O)NCC4CC4)cc3-c3ccccc3)C2)cc1 (stereo unspecified),–,"inconclusive: 13.1 µM [inhibitor, partial curve, poor fit]"
CCC(=O)N1CCCc2cc(S(=O)(=O)N3CCCc4ccccc43)ccc21,–,"inconclusive: 18.5 µM [inhibitor, single point]"
O=C(C[n+]1cccc2ccccc21)c1ccccc1,–,"inconclusive: 11.7 µM [inhibitor, partial curve, poor fit]"
COC(=O)Cn1nc(-c2ccc(C)c(S(=O)(=O)N(C)C)c2)c2ccccc2c1=O,–,"inconclusive: 7.38 µM [inhibitor, partial curve, poor fit]"
Cc1noc(C)c1CN1C(=O)NC(Cc2ccccc2)(Cc2ccccc2)C1=O,–,"inconclusive: 13.1 µM [inhibitor, single point]"

SMILES,"activity change, negative = inhibition",Potency
C[C@@H]1O[C@@H](O[C@@H]2C=C3CC[C@@H]4C(CC[C@]5(C)[C@@H](c6ccc(=O)oc6)CC[C@]45O)[C@@]3(C)CC2)[C@H](O)[C@H](O)[C@H]1O (stereo partly specified),inactive: -11.3%,–
O=C(NCc1ccccn1)c1ccc(Cl)c(S(=O)(=O)N2CCOCC2)c1,–,"inconclusive: 11.7 µM [inhibitor, partial curve, poor fit]"
COc1ccc(OC)c(S(=O)(=O)N2CCC(C(=O)Nc3ccc(C)c(C)c3)CC2)c1,–,"inconclusive: 0.131 µM [inhibitor, partial curve, poor fit]"
O=C1C=C(c2ccc3ncccc3c2)C[C@@H](c2ccc3c(c2)OCO3)C1,–,"inconclusive: 4.65 µM [inhibitor, single point]"
CCOC(=O)c1c(NC(=O)CSc2ncccn2)sc(C(=O)NC)c1C,–,"inconclusive: 18.5 µM [inhibitor, single point]"
N#C/C(=C\c1ccc(N2CCOCC2)o1)C(=O)NCC1CCCO1 (stereo unspecified),–,"inconclusive: 10.4 µM [inhibitor, single point]"
CC1(C)CC(=O)C2=C(C1)N(Cc1cccnc1)C(=O)C2(NC(=O)c1ccc(F)cc1)C(F)(F)F (stereo unspecified),–,"inconclusive: 14.7 µM [inhibitor, partial curve]"
CCN(C(=O)c1ccco1)c1nc(CC(=O)Nc2ccc(Cl)cc2)cs1,–,"inconclusive: 18.5 µM [inhibitor, partial curve, poor fit]"
COc1ccc(Br)cc1C(=O)Nc1ccccc1N1CCN(C(=O)c2ccccc2)CC1,–,"inconclusive: 8.28 µM [inhibitor, partial curve]"
COc1ccc(/C=C2\OC(=O)c3c(OC)cccc32)cc1OC,inactive: 10.7%,–
COc1ccccc1-n1c(-c2ccccc2)c[n+]2c1CCc1ccccc1-2,–,"inconclusive: 928 nM [inhibitor, full curve] and inconclusive: 1.04 µM [inhibitor, full curve]"
Cc1c(Cl)cccc1NC(=S)N1CCN(c2ccc([N+](=O)[O-])cn2)CC1,inactive: -10.5%,–
Cc1cc(NC(=O)Cn2nc3c(cc2=O)CCCC3)ccc1Br,–,"inconclusive: 4.15 µM [inhibitor, single point]"
CCC(C)NC(=O)c1ccc(CNS(=O)(=O)c2ccc3c(c2)C(C)(C)C(=O)N3C)cc1 (stereo unspecified),inactive: 0.316%,–
Cc1ccccc1CN(C)CC(=O)Nc1c(C)cccc1C(C)C,inactive: -27%,–
O=C(Nc1nccs1)c1ccc(COc2c(F)c(F)cc(F)c2F)cc1,–,"inconclusive: 18.5 µM [inhibitor, single point]"
NC(=O)Nn1c(CCC(=O)O)ccc1-c1ccc(Br)cc1,inactive: 8.01%,–
O=C(CSCc1ccccc1)N1CCc2ccccc21,inactive: 169%,–
CCCCc1ncc(CN2CCC(n3nccc3NC(=O)c3ccccc3Cl)CC2)[nH]1,inactive: -21.1%,–
CCn1cc([C@@H]2C[C@H]3CN(Cc4cccc(Cl)c4)C(=O)[C@]34CCCN24)c(C)n1,–,"inconclusive: 9.28 µM [inhibitor, partial curve, poor fit]"
CCn1c(Cc2ccccc2)nnc1SCC(=O)NC1CC1,–,"inconclusive: 18.5 µM [inhibitor, single point]"
CCOC(=O)CCc1c(C)c2ccc(OCC(=O)N(CC)CC)c(C)c2oc1=O,–,active: 10.4 µM
CC(Oc1ccc(NC(=O)c2ccco2)cc1)C(=O)N1c2ccccc2CC1C (stereo unspecified),–,"inconclusive: 3.29 µM [inhibitor, partial curve, poor fit]"
